This note sets out measurements from PubChem BioAssay AID1240 (Sanford-Burnham Center for Chemical Genomics, 2008).

About 800 (1.6%) of roughly 50,000 compounds showed an effect of 50% or more. The list shows a part of the results.

This test addresses Bcl-2-like protein 10 (Homo sapiens) (UniProt Q9HD36). The test can be described thus: TR3 peptide-Bcl-B binding displacers, biochemical primary FP assay, phenotype converters (AID 1240).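 Further: 0% = Bcl-B with tracer peptide and DMSO and 100% = tracer peptide lacking Bcl-B.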 Conditions: GST-Bcl-B / FITC-TR3 peptide fluorescence polarization; stronger effect = higher value; compound at 3.75 mg/L. In general terms: In fluorescence polarisation assays a small probe gives low polarisation when free and higher when bound to something large.
UniProt Q9HD36, sequence (Q9HD36 whole entry, looked up): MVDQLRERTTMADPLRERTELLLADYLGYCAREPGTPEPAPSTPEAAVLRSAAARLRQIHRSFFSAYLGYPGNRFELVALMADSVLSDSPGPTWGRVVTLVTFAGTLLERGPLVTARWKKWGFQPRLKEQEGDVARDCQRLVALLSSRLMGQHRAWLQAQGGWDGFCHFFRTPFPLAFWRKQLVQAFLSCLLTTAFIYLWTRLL
In the case of `CC(=NCCc1ccccc1)c1c(C(F)(F)F)[nH]n(-c2nc3ccccc3s2)c1=O`, the displacement was -8.3%.
Regarding `C#CCSc1nncn1C(=O)/C=C/c1cccs1`, the displacement was -18.2%.
As for `CCOC(=O)CSc1nc2ccc(N3C(=O)c4ccccc4C3=O)cc2s1`, the figure is 6.2%.
Under `Cc1[nH]n(-c2ccccc2)c(=O)c1N=Nc1ccccc1Br` stands -1.6%.
Under `COc1ccccc1N1CCN(C(=O)N2CCOCC2)CC1` stands -3.7%.
As to `Nc1ccc(-c2cn3ccsc3n2)cc1`, the displacement is -0.9%.
As for `CCOC(=O)Cc1nnc(Nc2ccc(OC)cc2)c2ccccc12`, the displacement worked out at 3.2%.
Regarding `Fc1ccc(/C=N/Nc2nnc(-c3ccccc3)c(-c3ccccc3)n2)cc1`, the displacement amounted to 5.2%.
Under `O=C(N/C(=C/c1ccc(-c2cccc([N+](=O)[O-])c2)o1)C(=O)N1CCCCC1)c1ccccc1` stands -10.5%; under `CC(Sc1ccc(Cl)cc1)C(=O)Nc1cccc2ccccc12` (stereo not given), 1.6%.
Under `COc1cc(OC)cc(C(=O)N2CCN(c3ccccc3)CC2)c1` stands 6.5%; under `CC(=O)OCC12c3ccccc3C(COC(C)=O)(c3ccccc31)C1C(=O)N(c3ccccc3)C(=O)C12` (stereo not given), -9.8%.
Consider `COc1ccc(NC(=O)CSc2nc3ccc(N4C(=O)c5ccccc5C4=O)cc3s2)c([N+](=O)[O-])c1`, for which the displacement was 0.3%.
Consider `CCSc1nnc(NC(=O)CSc2ccccc2)s1`, for which the displacement is -6%.
Under `CC1(C)OC2(NC1=O)C1CC3CC(C1)CC2C3` (stereo not given) stands -0.8%; under `CCOc1ccc2nc(CCC(=O)O)[nH]c2c1`, -8.4%; under `CCOC(=O)c1c(NC(=O)Cc2ccc(OC)cc2)sc(C(=O)Nc2cc(C(F)(F)F)ccc2Cl)c1C`, 7.8%.
Under `Cc1ccc(NC(=O)c2cc3ccccc3cc2O)c(C)c1` stands -1.7%; under `CCOc1ccc2nc(SC/C=C/c3ccccc3)sc2c1`, -7.3%; under `CCOC(=O)c1sc(C)c(C(N)=O)c1N`, 7.5%.
`O=C(/C=C/c1ccc(F)cc1)NC(=S)Nc1ccccc1`: the displacement is -7.4%.
As for `C/C(=N\N1C(=O)CN(Cc2ccccc2)C1c1ccccc1)c1ccccc1` (stereo not given), the figure is -2.1%; as for `O=C(c1ccccc1)N1CCCC2CCCCC21` (stereo not given), 1.6%; as for `O=C(CN(Cc1ccccc1)S(=O)(=O)c1ccccc1)NCc1ccco1`, 4.5%.
Under `O=C1CS/C(=N/N=C/c2c3ccccc3cc3ccccc23)N1` stands -1.8%; under `COc1ccc2nc(NC(=O)C3CCCN3S(=O)(=O)c3ccc(C)cc3)sc2c1` (stereo not given), 11.9%; under `O=C(O)/C=C\C(=O)Nc1ccc(OC(F)F)cc1`, 8%.
Under `COc1ccccc1NC(=O)c1ccc(CN(c2ccccc2)S(C)(=O)=O)cc1` stands 4.9%; under `COc1ccc(-c2cc(C(=O)NC3CCCCCCC3)c3ccccc3n2)cc1OC`, -6.8%.
In the case of `O=C(c1ccco1)N1CCc2ccccc21`, the displacement turned out to be 17.9%.
As for `COc1cccc(OC)c1C(=O)N(C)c1ccccc1`, the figure is 0.7%; as for `CC(C)(NC(=O)NCc1ccccc1)c1cccc(C(C)(C)NC(=O)NCc2ccccc2)c1`, -2%.
As for `Cc1ccc(C(C)C)c(OCC(=O)Nc2cccc(S(N)(=O)=O)c2)c1`, the figure is 18.5%.
As for `CN(C)c1ccc(NC2=NS(=O)(=O)c3ccccc32)cc1`, the figure is 4.3%.
Regarding `COc1ccc(CN2CCN(Cc3ccccc3C(F)(F)F)CC2)cc1`, the displacement is -1%.
On to `Cc1cccc(C(=O)NCC(O)c2ccccc2)c1` (stereo not given), for which the displacement is 9%.
As for `COc1ccc(Br)c(/C=N/NC(=O)CCCCCCC(=O)N/N=C/c2cc(OC)ccc2Br)c1`, the figure is 24.3%.
Consider `COc1cccc(N=Cc2ccc(O)cc2O)c1`, for which the displacement was determined as 9.2%.
Consider `COc1cc(C2c3c(-c4ccccc4)n[nH]c3C(=O)N2c2ccccc2)ccc1O` (stereo not given), for which the displacement was determined as 0.4%.
As for `CCOC(=O)c1c(C)sc(Sc2ccc(Br)cc2[N+](=O)[O-])c1OC(C)=O`, the displacement was -2.7%.
For the molecule `CCCOC(=O)c1c(NC(=O)CCCC(=O)O)sc2c1CCC(C)C2` (stereo not given), the displacement came to 9.5%.
Under `COc1ccc(NC(=O)c2c(-c3c(Cl)cccc3Cl)noc2C)c(OC)c1` stands 9.8%.
Take `CCOc1ccccc1N1C(=O)NC(=O)/C(=C/C=C/c2ccco2)C1=O`: the displacement turned out to be 20.1%.
As for `CCOC(=O)c1c(NC(=O)Cc2ccc(OC)cc2)sc(C(=O)Nc2ccccc2OC)c1C`, the figure is -3.7%; as for `O=S(=O)(NCc1ccc(Cl)cc1)c1ccccc1`, 3%.
As for `Cc1cc(NC(=O)c2sc3cc(F)ccc3c2Cl)no1`, the figure is -3%.
In the case of `O=C(C(c1ccccc1)c1ccccc1)N1CCN(c2ccccc2)CC1`, the displacement is -1.9%.
As for `CCCCOc1ccc(C=C2C(=O)NC(=S)NC2=O)cc1OC`, the displacement was 12.4%.
Under `O=C(NC(Cc1ccc([N+](=O)[O-])cc1)C(=O)NC1CCCC1)OCc1ccccc1` (stereo not given) stands -4%; under `Cc1ccc(-n2c(C)cc(/C=N/NC(=O)c3ccc(CN4CCOCC4)cc3)c2C)cc1`, -24.7%.
With `CC1CCN(C(=O)c2cc3nc(-c4ccccc4)cc(C(F)(F)F)n3n2)CC1`, the displacement is 0%.
Consider `O=C1CC(N2CCN(C/C=C/c3ccccc3)CC2)C(=O)N1c1cc(Cl)cc(Cl)c1` (stereo not given), for which the displacement stood at 5.8%.
For the molecule `CCN1CCN(C(=O)c2ccc(F)cc2)CC1`, the displacement is -13.5%.
As for `Oc1ccc(N=Cc2cc(Br)cc(Br)c2O)cc1`, the figure is 19.8%; as for `NC(=S)N/N=C/c1cn(-c2ccccc2)nc1-c1ccc(Cl)cc1`, -5.2%; as for `CN(C)CCNC(=O)COc1ccc2ccccc2c1`, -5.3%.
Under `COC(=O)c1ccc(-n2c(C)cc(/C=C3/SC(N)=NC3=O)c2C)cc1` stands -17.2%.
Under `C/C(O)=C/c1nc2ccc([N+](=O)[O-])cc2nc1/C=C(/C)O` stands 17.3%; under `Cc1cc(C)nc(/N=C(/NC(=O)Nc2cccc(Cl)c2)Nc2ccccc2)n1`, -1.7%.
Turning to `O=C1C2C(c3ccc(Br)cc3)OC3(C(=O)c4ccccc4C3=O)C2C(=O)N1c1cccc([N+](=O)[O-])c1` (stereo not given), the displacement is 13.2%.
Under `COCCCN1C(=O)c2ccc3c4c(ccc(c24)C1=O)CC3` stands 6.1%.
As for `CCOC(=O)CN(CP(=O)(OCC)OCC)CP(=O)(OCC)OCC`, the figure is -4.9%; as for `COCCOC(=O)C1=C(C)NC2=C(C(=O)CCC2)C1c1ccc(Cl)c([N+](=O)[O-])c1` (stereo not given), -7.8%.
Under `O=C(/C=C\Nc1ccc2[nH]ncc2c1)c1ccc(Br)cc1` stands 23%.
Take `CC(c1ccccc1)c1nnc(NC(=O)Nc2ccc(Cl)cc2)s1` (stereo not given): the displacement amounted to 2.3%.
Under `COc1ccc(/C=C2\C(=O)NC(=O)N(c3cccc(Br)c3)C2=O)cc1OC` stands 120%.
As to `CCc1ccc(S(=O)(=O)Nc2c([N+](=O)[O-])ccc3ccccc23)cc1`, the displacement is 4.6%.
As for `O=C(/C=C\c1ccccc1)Nc1ccc(N2CCOCC2)cc1`, the figure is 4.5%; as for `O=C(N/N=C/c1ccc(O)c(O)c1)c1ccccn1`, 5.7%; as for `CCOC(=O)C1=C(C)N=c2s/c(=C\c3ccc(N(C)C)o3)c(=O)n2C1c1ccc(OCC)cc1` (stereo not given), -1.2%.
As to `CCN(C(=O)c1cc(Cl)ccc1OC)c1ccccc1C`, the displacement is -11.6%.
As to `COc1cc(/C=N/n2nnnc2N)ccc1OCc1c(C)no[n+]1[O-]`, the displacement amounted to 22.5%.
Under `COc1cccc(-c2nnc(-c3ccc(Br)o3)o2)c1` stands -2.9%; under `NC(=O)c1ccc(NC(=O)c2ccccc2I)cc1`, 24%; under `CCOc1ccccc1NC(=O)CN(c1ccc(F)cc1)S(=O)(=O)c1ccccc1`, -10.4%.
On to `CC(C)(c1cc(Cl)cc(Cl)c1)N1C(=O)C2=C(CCCC2)C1=O`, for which the displacement was 5.1%.
As for `O=C(O)/C=C/C(=O)Nc1ccc(OC(F)(F)Cl)cc1`, the figure is -9.1%.
Under `Cc1cccc(C)c1OC(=O)C(C)N1C(=O)c2ccccc2C1=O` (stereo not given) stands 1.2%; under `O=c1nc(-c2ccc(Cl)cc2)c2cc(Cl)ccc2[nH]1`, -20.8%; under `O=C(Nc1ccccc1Cl)c1ccccc1Br`, 0.8%.
As for `OC(COc1ccc(C23CC4CC(CC(C4)C2)C3)cc1)CN1CCN(c2ccc(F)cc2)CC1` (stereo not given), the figure is -4%; as for `COC(OC)c1cn(-c2ccccc2)nc1-c1ccccc1`, 7.8%.
For `Nc1cc(=O)[nH]c(SCc2ccc(Cl)cc2Cl)n1`, the displacement was -27%.
`COc1ccc(C2CC(C(F)(F)F)n3nc(C(=O)N4CCN(C)CC4)c(Cl)c3N2)cc1` (stereo not given): the displacement worked out at 1.1%.
As for `Cc1ccnc(NS(=O)(=O)c2ccc(NC(=O)c3ccccc3)cc2)n1`, the figure is 4.2%.
As for `Cc1ccc(-c2noc(COc3ccc(Cl)cc3C)n2)cc1`, the figure is -10.7%.
Under `CCc1[nH]nc(C(=O)N/N=C/c2cccnc2)c1C` stands -21.3%; under `CC(=O)Nc1ccccc1NC(=O)c1cccc(Br)c1`, 3.9%.
Turning to `O=C1C2ON(c3ccccc3)C(c3ccc(Br)cc3)C2C(=O)N1c1ccccc1C(F)(F)F` (stereo not given), the displacement turned out to be 12.8%.
Take `CCCCC/C=C/C(=O)Nc1cccc2ccccc12`: the displacement turned out to be 9.2%.
As for `O=S(=O)(Nc1cccc(-c2nc3ccccc3[nH]2)c1)c1ccccc1`, the figure is 12.1%; as for `CC(CNC(=O)c1ccc(Br)cc1)CN(C)C` (stereo not given), 1.7%.
Under `O=C(Nc1nc2ccccc2n1Cc1ccc(Cl)cc1)c1ccc(Cl)cc1` stands 6.4%; under `O=C(CSc1cc(Cl)ccc1Cl)Nc1cccc(Cl)c1`, 11.5%; under `Cc1c(/C=C/c2nc3ccccc3c(=O)n2C)c2ccccc2n1C`, 3%.
With `COc1ccc(NC(=O)C2CCC2)cc1`, the displacement is -0.9%.
As to `COc1cc(NC(=O)COc2cccc(Cl)c2)c(OC)cc1Cl`, the displacement is -7.8%.
Consider `Cc1ccccc1NC(=O)/C=C/c1ccc([N+](=O)[O-])cc1`, for which the displacement is -5.6%.
On to `CCN(CC)CCN1C(=O)C(O)=C(C(=O)/C=C/c2ccccc2)C1c1ccc(OC)cc1` (stereo not given), for which the displacement was 5.2%.
Under `CCCNC(=O)c1c(NC(=O)c2cccc(C)c2)sc2c1CCCC2` stands -5.6%.
As for `O=C(Nc1ccccc1C(=O)Nc1ccc(Cl)cc1)c1cccs1`, the figure is 3%.
For the molecule `Cc1ccc(-c2cc(C(F)(F)F)n3ncc(C(=O)N4CCN(C)CC4)c3n2)cc1`, the displacement was -8.8%.
Under `Fc1ccc(C2CC(c3cccs3)=NN2c2nc(-c3ccccc3)cs2)cc1` (stereo not given) stands -19.7%; under `CCCCN(/C=C/C(=O)c1ccccc1)S(=O)(=O)c1ccccc1`, 1.6%.
As for `Nc1c(C(=O)Nc2ccccc2)sc2nc3c(cc12)CCC3`, the figure is 8.2%; as for `O=S(=O)(Nc1cccnc1)c1ccc(Br)c2ccccc12`, -7.4%.
On to `O=C(NC(=S)Nc1ccc(-c2nc3ncccc3o2)cc1)c1ccco1`, for which the displacement was determined as 112%.
As for `CC1=NN(C(=O)Cc2ccccc2)C(O)(c2ccc(Br)cc2)C1` (stereo not given), the figure is -1.1%; as for `O=C(COc1ccc(Br)cc1)Nc1ccccc1Cl`, 1.4%; as for `CSCCC(/C(O)=C(\C#N)c1nc2ccccc2[nH]1)N1C(=O)c2ccccc2C1=O` (stereo not given), -3.7%.
